The other results are listed elsewhere or left out. Rule as the data show it: active = 3.2 or more and inactive = the rest. The signal is at background level for most entries.
B1: TP53_Y234_N235S_YF (peptide)
chain: CTTIHYSFMCN
B2: TP53_Y234_Y234D_YF (peptide)
chain: CTTIHDNFMCN
B3: TP53_Y327_P322L (peptide)
chain: LLDGEYFTLQI
B4: TP53_Y234_N239T_YF (peptide)
chain: CTTIHYNFMCT
B5: TP53_Y327_D324Y (peptide)
chain: PLYGEYFTLQI
B6: TP53_Y234_Y234H (peptide)
chain: CTTIHHNYMCN
B7: TP53_Y234_T231N_YF (peptide)
chain: CTNIHYNFMCN
B8: TP53_Y234_Y234Q_YF (peptide)
chain: CTTIHQNFMCN
B9: TP53_Y234_Y234K (peptide)
chain: CTTIHKNYMCN
B10: TP53_Y327_I332V (peptide)
chain: PLDGEYFTLQV
B11: TP53_Y234_T231A_YF (peptide)
chain: CTAIHYNFMCN
B12: TP53_Y234_T230S_YF (peptide)
chain: CSTIHYNFMCN
B13: TP53_Y234_Y234S_YF (peptide)
chain: CTTIHSNFMCN
B14: TP53_Y327_L323M (peptide)
chain: PMDGEYFTLQI
B15: TP53_Y327_E326G (peptide)
chain: PLDGGYFTLQI
B16: TP53_Y234_Y236D (peptide)
chain: CTTIHYNDMCN
B17: TP53_Y234_T231I (peptide)
chain: CTIIHYNYMCN
B18: TP53_Y234_Y236H (peptide)
chain: CTTIHYNHMCN
B19: TP53_Y234_N239H (peptide)
chain: CTTIHYNYMCH

Target: SHP2 C-SH2 domain E139D
Test: enrichment score (SH2-bound / input frequency) (ratio); bacterial display of known human phosphotyrosine sites (pTyr-Var adds point mutants) read by sequencing; higher = stronger binding; tyrosines were phosphorylated by kinases first
Settings: peptide library: pTyr-Var
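Also: displayed peptides selected on beads carrying the immobilized SH2 domain, with library peptides lacking any tyrosine serving as negative controls.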

Enrichment score, inactive:
B2 1.54
B3 0.984
B4 3.19
B5 1.13
B6 2.92
B8 2.14
B9 1.75
B10 0.97
B12 3.18
B13 2.27
B14 0.824
B15 1.38
B16 1.95
B18 2.75

Enrichment score, active:
B1 3.8
B7 3.71
B11 3.95
B17 4.86
B19 4.62

Target: SHP2 C-SH2 domain wild-type
Test: as above
Settings: peptide library: pTyr-Var

Enrichment score, active:
B1 3.76
B6 3.53
B7 3.41
B11 3.5
B17 4.59
B19 5.4

Enrichment score, inactive:
B2 1.54
B3 0.887
B4 3.06
B5 1.14
B8 2.24
B9 2.34
B10 1
B12 3.17
B13 2.27
B14 1.2
B15 1.82
B16 1.37
B18 2.27

Target: SHP2 N-SH2 domain L43F
Test: as above
Settings: peptide library: pTyr-Var

Enrichment score, active:
B1 3.55
B7 3.75
B11 3.37
B17 3.47
B19 3.5

Enrichment score, inactive:
B2 1.58
B3 0.568
B4 3.01
B5 1.13
B6 2.77
B8 2.29
B9 1.64
B10 0.69
B12 2.96
B13 2.24
B14 0.707
B15 0.879
B16 1.46
B18 2.31

Target: SHP2 N-SH2 domain T42A
Test: as above
Settings: peptide library: pTyr-Var

Enrichment score, inactive:
B1 2.71
B2 1.49
B3 1.24
B4 2.89
B5 0.991
B6 2.26
B8 1.88
B9 1.47
B10 0.611
B11 2.82
B12 2.49
B13 2.09
B14 0.661
B15 1.24
B16 1.11
B17 2.67
B18 2.36
B19 3.1

Enrichment score, active:
B7 3.38

Target: SHP2 N-SH2 domain T52S
Test: as above
Settings: peptide library: pTyr-Var

Enrichment score, active:
B1 3.24
B7 3.38
B17 3.48
B19 3.51

Enrichment score, inactive:
B2 1.53
B3 0.914
B4 2.33
B5 0.923
B6 2.7
B8 2.14
B9 1.47
B10 0.737
B11 3.12
B12 2.99
B13 2.29
B14 0.561
B15 1.04
B16 1.3
B18 2.8

Target: SHP2 N-SH2 domain wild-type
Test: as above
Settings: peptide library: pTyr-Var

Enrichment score, inactive:
B1 2.93
B2 1.62
B3 1.31
B5 1.31
B6 2.24
B7 2.84
B8 1.53
B9 1.41
B10 0.726
B11 2.81
B12 2.75
B13 2.03
B14 1.01
B15 1.16
B16 1.12
B18 2.27
B19 3.07

Enrichment score, active:
B4 3.8
B17 3.33
